Source: PubChem BioAssay AID330 (DTP/NCI, 2004)
Toxic doses and inconclusive results are not listed. Not every entry of the source has a single result; some have several. Only these are listed. The source may hold further records. The records of an entry differ for a reason that is not stated; they may come from other doses, times, organisms or constructs than stated.

Tested on: P388 leukemia ip, CD2F1 mice, survival T/C
Assay: NCI In Vivo Anticancer Drug Screen. Data for tumor model P388 Leukemia (intraperitoneal) in CD2F1 (CDF1) mice
Settings: endpoint: median survival time; dose: 8.0 mg/kg/injection; schedule: Q01DX009 (ip); vehicle: water; higher = longer survival

COc1cccc2c1C(=O)c1c(O)c3c(c(O)c1C2=O)C[C@@](O)(/C(C)=N/NC(=O)c1ccc(O)cc1)C[C@@H]3OC1CC(N)C(O)C(C)O1 (stereo partly specified)
T/C: 94 % of control and 181 % of control
